Out of some 48,000 compounds screened, about 120 (0.25%) were called active. About 4% were inconclusive and are not listed. The call rests on the fitted dose curve; in most records, active means well fitted activation curve with a large enough effect; inconclusive means small, poorly fitted or top-dose-only effect, or another doubt; inactive means no such curve, though single readings can be large or run the other way. This is one part of the list.
Assay: Primary qHTS for Identification of Small Molecule Activators of Huntingtin-Antisense Promoter Activity; further: nearly all actives have a fitted effect of over 55% in size
Conditions: HEK293 HTT-AS promoter firefly luciferase reporter (activity 0% = vehicle and -100% = no light), 24 h; series mostly up to 57.5 µM; activity change, positive = activation: at the top concentration
In short: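 HEK293 luciferase promoter-reporter cells (2,500/well) plated 24 h, then compounds added at up to 57.5 uM final for 24 h at 37 °C. Firefly luminescence by Dual-Glo, normalized to vehicle (0%) and zero RLU (-100%).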

Activity change, positive = activation, inactive:
CCOc1ccc(-c2cccc(NS(=O)(=O)c3ccc(Cl)s3)c2)nn1 -9.71%, Cc1ccc2c(c1)c1c(c(=O)n(-c3cccc(Cl)c3)c(=O)n1C)n2C -10.9%, COc1cc(OC)c(NC(=O)c2cnc(N3CCCC3)nc2C)cc1Cl 0.826%, CCSc1ncc(Cl)c(C(=O)Nc2sc(C(C)=O)c(C)c2C(=O)OC)n1 2.3%, O=C(CCc1ccc(O)cc1)c1c(O)cc(O)cc1O[C@@H]1O[C@H](CO)[C@H](O)[C@H](O)[C@H]1O -11.9%, C[C@@H](NCc1cc2ccccc2[nH]1)c1cccc2ccccc12 -7.67%, COc1ccc(CNC(=O)c2ccc(Sc3ccc(Cl)cc3)c(NC(C)=O)c2)c(OC)c1 -35.5%, CCOC(=O)c1c(NC(=O)c2cc3nc(-c4ccc(OC)cc4)cc(C(F)(F)F)n3n2)sc(C)c1C -1.97%, CCc1cccc(NC(=O)c2c(C)oc3ncnc(N4CCCCC4)c23)c1 -20.2%, O=C1CN(C(=O)COc2ccc(Cl)cc2Cl)C(c2ccc(F)cc2)c2cc(F)ccc2N1 (stereo not given) -35.5%, NCCC(O)(P(=O)(O)O)P(=O)(O)O 1.17%, COc1ccc(C(=O)c2oc3ccccc3c2NC(=O)c2nc(SC)ncc2Cl)cc1Cl 3.64%, CC(C)CCNC(=O)N1CCN(S(=O)(=O)c2ccc3c(ccn3C)c2)CC1 -16%, CCOC(=O)c1c(S(=O)(=O)N2CCCC(C(=O)Nc3cc(C)ccc3OC)C2)c(C)n(C)c1C (stereo not given) 0%, CCOc1ccc(CCNC(=O)CCc2cn(Cc3ccc(C)cc3)c3ccccc23)cc1 -23.6%, CCCCNC(=O)CCn1c(=O)c2ccccc2n(Cc2cc(C)ccc2C)c1=O -5.08%, COc1cccc(C2=NN(C(C)=O)C(c3cn(-c4ccccc4)nc3-c3cccs3)C2)c1 (stereo not given) -16.4%, CC1CCN(S(=O)(=O)c2ccc3c(c2)N(CC(=O)N2CCN(c4ccc(Cl)cc4)CC2)C(=O)CO3)CC1 -24.6%, CC(C[N+](C)(C)C)OC(N)=O (stereo not given), Cc1ccc(C)c(N2CCN(C(=O)c3cc(S(=O)(=O)N4CCCCC4)cn3C)CC2)c1 -34.4%, COc1ccc2[nH]cc(CCNC(=O)Nc3ccc(F)cc3)c2c1 -16.5%, CCCC(=O)Nc1nnc(SCc2cc(=O)c3cc(C)ccc3[nH]2)s1 -29.2%, O=C(c1ccc(CSc2nc3ccncc3n2Cc2ccccc2F)cc1)N1CCCCCC1 -13.2%, CC(C)S(=O)(=O)c1oc(-c2ccc(F)cc2)nc1S(=O)(=O)c1ccc(F)cc1 -94.8%, Cc1cccc(OCC(=O)N(Cc2cccc(Cl)c2)Cc2ccco2)c1C -26.7%, COc1ccc2cc(-c3cn4c(n3)sc3cc(F)ccc34)c(=O)oc2c1 6.19%, Cc1ccc(S(=O)(=O)c2nc(-c3ccccc3)oc2N2CCCCCC2)cc1 -24%, COc1ccc(/C=C/c2onc(C)c2S(=O)(=O)N2CCC(C(=O)N3CCC(C)CC3)CC2)cc1 -14.5%, Cc1ccccc1CSc1nc(-c2ccccc2)nc2c1Cc1c(CO)cnc(C)c1O2 -6.85%, COc1cccc(C(=O)NCC(c2ccc(N(C)C)cc2)N2CCOCC2)c1OC (stereo not given) 7.6%, Cn1c(SCC(=O)Nc2ccc(F)cc2)nc2c([nH]c3ccccc32)c1=O -7.1%, CN(C)C(=O)c1ccc2c(c1)N(CC(=O)NCc1ccc(F)cc1)C(=O)C1CCCCN21 (stereo not given) -4.4%, CCN(C(=O)c1cc(S(=O)(=O)N2CCOCC2)cn1C)c1ccc(OC)cc1 -6.15%, Cc1ccc(NC(=O)C(Cc2ccccc2)NS(=O)(=O)c2ccc3c(c2)c(=O)n(C)c(=O)n3C)cc1 (stereo not given) -11%, Cc1ccc(CN2C(=O)c3ccccc3S(=O)(=O)c3ccc(C(=O)OCC4CCCO4)cc32)cc1 (stereo not given) -18.2%, Cn1cc(C(=O)O)c(=O)c2cc(S(=O)(=O)N3CCCCC3)ccc21 -6.38%, CCCC(=O)Oc1c(Sc2ccc(Cl)cc2)c(C)nn1-c1ccccc1 -29.9%, Cc1cccn2c(=O)c3cc(C(=O)NCCc4ccc(S(N)(=O)=O)cc4)n(C)c3nc12 -24.4%, COc1ccc(OC)c(C2C(C(N)=O)=C(C)Nc3nc(-c4cccc(Cl)c4)nn32)c1 (stereo not given) -9.69%, CC(C)(C)c1ccc(OCC(=O)N(Cc2ccco2)Cc2ccccc2F)cc1 -31.2%, COc1cc(OC)cc(-c2nnc(SCC(=O)N3CCC(C)CC3)o2)c1 -15.2%, COc1ccc(CCNC(=O)CCn2c(=O)c3ccccc3n(CC(=O)Nc3cccc(C)c3)c2=O)cc1OC -8.28%, CC(=O)c1ccc(NC(=O)Cn2c(-n3nc(C)cc3C)nc(C)cc2=O)cc1 -12.7%, Cc1ccc2c(c1)cc1c(=O)n(CC(=O)NCc3ccco3)nc(C)n12 -7.56%, Cc1cc(C(C#N)c2ccc(Cl)cc2)c(Cl)cc1NC(=O)c1cc(I)cc(I)c1O (stereo not given) -93.2%, O=C(Cn1ncc2c3ccccc3n(Cc3ccc(Cl)cc3)c2c1=O)NCCCc1ccccc1 3.15%, COc1ccc(Nc2oc(-c3ccc(COc4ccc(OC)cc4)o3)nc2C#N)cc1 -33.5%, CC(C)c1ccc(Nc2cc(C(=O)NCCc3ccccc3)c3ccccc3n2)cc1 -17.9%, CCC(C)NC(=O)C1CCN(C(=O)c2cc3sccc3n2Cc2ccc(Cl)cc2)CC1 (stereo not given) -53.9%, CCc1ccccc1N1CC(c2nc3ccccc3n2CC(C)C)CC1=O (stereo not given) -20%, Cc1ccc(C)c(S(=O)(=O)c2nnn3c2nc(N2CCCC2)c2sccc23)c1 -19.7%, CCCCN(CC)CCCn1cnc2c([nH]c3ccc(Cl)cc32)c1=O -11.9%, CCC(=O)Nc1ccccc1-c1nc2ccccc2n(C(CC)C(=O)Nc2cccc(C(C)=O)c2)c1=O (stereo not given) -15.7%, CC(C)(C)C1CCc2nc(NC(=O)COc3ccc(F)cc3)sc2C1 (stereo not given) -35.1%, CC(=O)Nc1ccc(-n2cc3c(c2-c2ccc(C)cc2)c(=O)n(C)c(=O)n3C)cc1 -5.3%, Cc1oc(-c2ccc(C(=O)Nc3ccc(F)cc3F)cc2)nc1COc1ccccc1 -2.15%, COC(=O)c1c(NC(=O)CCCOc2ccccc2)sc2c1CCC(C)C2 (stereo not given) 2.67%, Cc1ccc(Cl)cc1NC(=O)C1CCCN(S(=O)(=O)c2c(C)noc2/C=C/N(C)C)C1 (stereo not given) -28.8%, Fc1ccc(C2=NC(c3cccc(C(F)(F)F)c3)=Nc3ccccc3N2)cc1 -24.3%, CCC(=O)N1CCc2cc(S(=O)(=O)CCC(=O)N(C)c3ccc(OC)cc3)ccc21 2.71%
